Data taken from the antibiotic and cytotoxicity screens of Wong et al. (2023).
The list shows a part of the results.

Experiments:
HSkMC = human skeletal muscle cells; experiment: cytotoxicity call (relative viability < 0.9); conditions: 10 µM
HepG2 = experiment: cytotoxicity call (relative viability < 0.9); conditions: 10 µM
S. aureus RN4220 = experiment: growth inhibition call (relative growth <= 0.2); conditions: 50 µM

| SMILES | cytotoxicity call (HSkMC) | cytotoxicity call (HepG2) | growth inhibition call (S. aureus RN4220) |
| --- | --- | --- | --- |
| C[C@@H]1CCCCO[C@H](CN(C)Cc2ccncc2)[C@H](C)CN([C@@H](C)CO)C(=O)c2cc(NC(=O)c3ccccc3)ccc2O1 | active | inactive | inactive |
| C[C@@H]1CN([C@H](C)CO)C(=O)Cc2cc(NS(=O)(=O)c3cn(C)cn3)ccc2O[C@H]1CN(C)CC1CC1 | inactive | inactive | inactive |
| O=C(C[C@@H]1CC[C@H]2[C@@H](COC[C@H](O)CN2S(=O)(=O)c2ccccc2Cl)O1)NCc1ccccc1Cl | inactive | inactive | inactive |
| COCC#Cc1ccc2c(c1)O[C@@H](CN(C)C(=O)COC)[C@@H](C)CN([C@H](C)CO)S2(=O)=O | inactive | inactive | inactive |
| C[C@@H]1CN([C@@H](C)CO)C(=O)c2c(c3ccccc3n2C)-c2ccccc2CO[C@H]1CN(C)CC1CCCCC1 | inactive | inactive | inactive |
| COc1ccccc1-c1ccc2c(c1)O[C@H](CN(C)CC1CCOCC1)[C@@H](C)CN([C@H](C)CO)S2(=O)=O | inactive | inactive | inactive |
| C[C@@H]1CCCCO[C@H](CN(C)C(=O)NC2CCCCC2)[C@H](C)CN([C@H](C)CO)C(=O)c2cc(NS(=O)(=O)c3ccc(F)cc3)ccc2O1 | inactive | active | inactive |
| C[C@@H]1CC[C@]2(C(=O)O[C@@H]3O[C@H](CO)[C@@H](O)[C@H](O)[C@H]3O)CC[C@]3(C)C(=CC[C@H]4[C@@]5(C)C[C@@H](O)[C@H](O)[C@@](C)(CO)[C@@H]5CC[C@]43C)[C@@H]2[C@]1(C)O | inactive | inactive | inactive |
